Assay results published in article PMC4336329 (PLoS ONE, 2015).
Screen size: about 310,000 compounds; about 2,200 (0.71%) showed an effect of 50% or more. The effect is printed as a negative number. The list shows a part of the results.

These molecules were tested against human ether-à-go-go-related gene (hERG) potassium channel (human, UniProt Q12809) (assay: primary screen, population patch clamp on CHO cells stably expressing hERG).
human ether-à-go-go-related gene (hERG) potassium channel, sequence (Q12809 whole entry, looked up): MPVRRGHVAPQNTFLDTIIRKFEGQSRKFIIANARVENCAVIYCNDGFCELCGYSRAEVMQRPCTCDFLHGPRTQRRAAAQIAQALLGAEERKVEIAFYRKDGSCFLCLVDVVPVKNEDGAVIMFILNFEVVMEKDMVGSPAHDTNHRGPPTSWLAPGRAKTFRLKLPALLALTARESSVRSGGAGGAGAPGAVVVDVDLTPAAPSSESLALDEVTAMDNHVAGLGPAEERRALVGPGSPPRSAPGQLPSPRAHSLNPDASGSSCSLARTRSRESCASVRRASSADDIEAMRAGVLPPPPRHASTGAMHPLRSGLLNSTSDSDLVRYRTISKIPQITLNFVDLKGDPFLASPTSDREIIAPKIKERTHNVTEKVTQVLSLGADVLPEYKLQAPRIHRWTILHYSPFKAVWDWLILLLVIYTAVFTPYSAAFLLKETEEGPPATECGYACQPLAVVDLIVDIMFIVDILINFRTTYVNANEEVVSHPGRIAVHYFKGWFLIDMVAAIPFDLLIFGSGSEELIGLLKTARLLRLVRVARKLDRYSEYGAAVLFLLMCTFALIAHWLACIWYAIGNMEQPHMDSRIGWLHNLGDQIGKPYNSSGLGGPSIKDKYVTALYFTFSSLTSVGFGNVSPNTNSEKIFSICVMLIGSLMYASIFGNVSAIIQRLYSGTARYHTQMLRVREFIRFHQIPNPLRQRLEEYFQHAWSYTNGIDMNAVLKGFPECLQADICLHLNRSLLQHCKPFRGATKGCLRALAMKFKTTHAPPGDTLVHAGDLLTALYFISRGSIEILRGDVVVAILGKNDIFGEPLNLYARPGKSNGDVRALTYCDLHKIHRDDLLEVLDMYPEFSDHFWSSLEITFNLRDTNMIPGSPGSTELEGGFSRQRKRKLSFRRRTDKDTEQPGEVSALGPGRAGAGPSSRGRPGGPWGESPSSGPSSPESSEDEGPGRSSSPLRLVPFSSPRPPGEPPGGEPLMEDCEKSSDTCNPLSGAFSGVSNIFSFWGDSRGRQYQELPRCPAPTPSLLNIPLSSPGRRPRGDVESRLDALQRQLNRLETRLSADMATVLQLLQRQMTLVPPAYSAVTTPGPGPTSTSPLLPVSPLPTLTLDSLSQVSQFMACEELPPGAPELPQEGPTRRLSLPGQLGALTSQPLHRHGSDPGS

SMILES | hERG current change (%, negative = inhibition) at 1uM [%]
C[C@@H](CC#N)CN1CC[C@H](C(C)(C)C)CCC1=O | 3.06
CC(=O)Nc1ccc(S(=O)(=O)Nc2nccs2)cc1 | 16.2
COc1cccc(CNC(=O)CCC2CCCN(C(=O)c3ccc(F)c(Cl)c3)C2)c1 (stereo not shown) | 2.1
O=C1NC(NS(=O)(=O)c2ccc(Cl)cc2)(C(F)(F)F)C(=O)N1Cc1cccnc1 (stereo not shown) | 1.49
CCN(Cc1ccccc1)C(=O)Cn1c(=O)oc2ccccc21 | 20.7
Cc1cccc(C)c1NC(=O)N1C2CCCC1CC(NC(=O)C(C)(C)C)C2 (stereo not shown) | 13.6
Nc1nonc1-n1nnc(C(=O)N/N=C/c2c(F)cccc2Cl)c1-c1ccc2c(c1)OCO2 | 13.7
Cc1ccsc1/C=N/NC(=O)C(=O)NCC(C)C | 3.1
O=C1CSC(c2cn(-c3ccccc3)nc2-c2cc3ccccc3oc2=O)N1Cc1cccnc1 (stereo not shown) | 1.82
CC1(NC(=O)N2CCCCC2)CCS(=O)(=O)C1 (stereo not shown) | 4.09
CN(C)/C=N/c1ncc(C(=O)c2ccc(Cl)cc2)s1 | -1.2
Cc1nc2ccc(S(=O)(=O)NC(C(=O)NCc3ccco3)C(C)C)cc2s1 (stereo not shown) | 5.36
COC(=O)\C(C(C)=O)=C(/C=C/C=C/N(C)C)N(C)C | 2.95
Cc1c(NC(=O)CSc2nnc(-c3cccnc3)n2N)c(=O)n(-c2ccccc2)n1C | 4.85
Cc1ccc2nc(NCc3ccc(F)cc3)c3nncn3c2c1 | 11.3
N=C1/C(=C\c2ccc(OC(=O)c3ccccc3Cl)cc2)C(=O)N=C2SC(N3CCOCC3)=NN12 | 8.44
COc1ccc(CNC(=O)C(C)N2CCN(c3ccc(C(C)=O)cc3)CC2)cc1 (stereo not shown) | -12.7
CC(C)c1ccc2[nH]c(O)c(N=NC(=O)c3cccc(S(=O)(=O)Nc4ccc(Cl)cc4)c3)c2c1 | 12.3
ON=C1/C(=N\O)CC2(C/C1=N/O)OCCO2 | 6.28
CC(=O)C(/C=N/c1cc(-c2ccc(C)cc2)nn1-c1ccccc1)=C(\C)O | 1.68
Cc1nn(CCCC(=O)Nc2cc(Oc3ccccc3)cc([N+](=O)[O-])c2)c(C)c1[N+](=O)[O-] | 16.2
Cc1ccc(S(=O)(=O)N[C@@H](CC(C)C)C(=O)NCc2ccco2)cc1 | 3.58
COc1ccccc1NC(=O)CNC(=O)c1ccc([N+](=O)[O-])cc1 | -0.0118
CN(CCCNC(=O)CCc1cn(C)c2ccccc12)C1CCCCC1 | 7.35
Cc1ccc(S(=O)(=O)O)cc1.NC1CCN(c2nc3c(cc2F)c(=O)c(C(=O)O)cn3-c2ccc(F)cc2F)C1 (stereo not shown) | 17.4
CCOC(=O)N1CCN(C(=O)c2cc(-c3ccc(F)cc3)[nH]c2C)CC1 | -54.1
COC(=O)c1ccc(NC(=O)CN2CCC(NC(=O)c3ccco3)CC2)cc1 | -8.47
COc1ccc(OC)c(CN2CCN(C(=O)c3cccc(S(=O)(=O)Nc4ccc(C)cc4)c3)CC2)c1 | 7.19

SMILES | hERG current change (%, negative = inhibition) at 1uM [%]
COc1cc(NC(=O)c2cccc(C)c2)c(Cl)cc1[N+](=O)[O-] | 9.24
COC(=O)C(NC(=O)c1ccccc1)(Nc1nccs1)C(F)(F)F (stereo not shown) | 7.64
Cc1cc(-c2n[nH]c(=S)n2Cc2ccccc2)cs1 | 9.2
Cn1cnnc1SCC(=O)NC1CCCC1 | -3.71
CCCCN(CC)CCCNC(=O)CS(=O)(=O)Cc1nc(-c2cccc(OC)c2)oc1C | -1.08
Cl.O=C(/C=C/c1cccc(F)c1)NCCCn1ccnc1 | -2.13
Cc1cc(SCC(=O)c2ccc(O)c(O)c2)n2nc(C)c(-c3ccccc3)c2n1 | 9.2
Cc1ccc(CNC(=O)CCS(=O)(=O)Cc2ccc(C)cc2)cc1 | 12.6
CN(C)S(=O)(=O)c1ccc(C(=O)N2CCCC2c2nc3ccccc3s2)cc1 (stereo not shown) | 5.59
O=C1CSC(c2ccc(Cl)cc2)N1C1CCCCC1 (stereo not shown) | 1.85
Cc1cccc(-c2nc3c(c(SCC(=O)N4CCOCC4)n2)COC(C)(C)C3)c1 | 5.85
O=C(Cn1ccc2ccccc2c1=O)NCC(=O)N1CCCCC1 | 21.2
Cc1ccc(NCc2ccc(C)s2)cc1 | 19.4
CN(Cc1ccc(OC(F)F)cc1)C(=O)c1ccccc1Sc1ccccc1C#N | -29.2
CCOC(=O)c1cccc(NC(=O)CNS(=O)(=O)c2cccs2)c1 | 6.79
CCCCOc1ccc(-c2c(C(=O)Nc3ccccc3)c(C)[nH]c(=S)c2C#N)cc1 | 14.5
COc1ccc(C(=O)NC2CC(C)(C)NC(C)(C)C2)cc1OC | 16.9
C=CCn1c(SCC(=O)Nc2cccnc2Cl)nnc1-c1ccc(Cl)cc1 | 1.44
CCCCNC(=O)c1c(CSc2ccccc2)noc1C(=O)NCc1ccccc1 | 23.2
Cc1cc2nn(-c3ccc(F)cc3)nc2cc1N | 13.5
CC1=C(C(=O)O)N2C(=O)C(NC(=O)Cc3ccccc3)C2SC1 (stereo not shown) | 11.1
CC(C)NC(=O)Cn1nc(C(F)(F)F)c2c1CCC2 | 8.67
Cc1cccc(NC(=O)CN2C(=O)c3ccccc3C2=O)c1C | 1.86
O=C(O[C@H]1[C@H](Oc2ccccc2COC(=O)C2(O)C=CCCC2=O)O[C@H](CO)[C@@H](O)[C@@H]1O)c1ccccc1 (stereo partly shown) | 9.26
Cc1ccccc1NC(=O)C1CC(=O)N(c2ccccc2F)C1 (stereo not shown) | -2.16
COc1cc(OC)c(-c2nc3ccccc3s2)cc1OC | 2.51
COc1ccccc1NC(=O)CN1C(=O)NC(C)(C)C1=O | 12.6
